Data: the supplement of paper PMC12217912
The list shows a part of the results. Sequences were assembled here from the parent chain. Values near 0.05 are background.

B1: TEV protease; numbered along this chain (parent)
chain: MGESLFKGPRDYNPISSSICHLTNESDGHTTSLYGIGFGPFIITNKHLFRRNNGTLVVQSLHGVFKVKDTTTLQQHLVDGRDMIIIRMPKDFPPFPQKLKFREPQREERICLVTTNFQTKSMSSMVSDTSCTFPSGDGIFWKHWIQTKDGQCGSPLVSTRDGFIVGIHSASNFTNTNNYFTSVPKNFMELLTNQEAQQWVSGWRLNADSVLWGGHKVFMVKPEEPFQPVKEATQL

Variants of: B1
Assay: raw area under fraction-flipped curve 0-4 h after induction (AUC4h, not background-subtracted), DNA-recorder readout of cleavage of the substrate (dimensionless); higher = more cleavage of the substrate by the protease variant
Conditions: temperature: 34 °C; time window: 0-4 h after rhamnose induction
Protocol: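 In vivo DNA recorder in E. coli TOP10(DE3) ΔrhaA at 34 °C. Each TEVp single-site mutant (parent TEVp 0) is paired with a single-site variant of the 7-mer TEVs (canonical ENLYFQ|S). The substrate sits between flexible linkers in a Bxb1-sfGFP-TEVs-SsrA fusion, so cleavage stabilises Bxb1 and speeds flipping of a recombination array, read by NGS. The value is the raw area under the fraction-flipped curve over 0-4 h after rhamnose induction (AUC4h), with ≥20 reads per time point. It is not background-subtracted; inactive controls average about 0.047.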
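Note: Bxb1 expression induced with 0.2% (w/v) L-rhamnose at OD600 near 0.5, cultures sampled hourly, flipped fraction per protease–substrate barcode pair counted by paired-end Illumina sequencing.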

Variant | area with substrate ECLYFQS | area with substrate EELYFQS | area with substrate EGLYFQS | area with substrate EHLYFQS | area with substrate EILYFQS | area with substrate EKLYFQS | area with substrate ELLYFQS | area with substrate EPLYFQS | area with substrate EQLYFQS | area with substrate ESLYFQS | area with substrate EVLYFQS | area with substrate EMLYFQS | area with substrate ERLYFQS | area with substrate EDLYFQS | area with substrate EWLYFQS | area with substrate EYLYFQS | area with substrate EFLYFQS | area with substrate ETLYFQS
MGESLFKGPRDYNPISSSICHLTNESDGHTTSLYGIGFGPFIITNKHLFRRNNGTLVVQSLHGVFKVKDTTTLQQHLVDGRDMIIIRMPKDFPPFPQKLKFREPQREERICLVTTNFQTKSMSSMVSDTSCTFPSGDGIFWKHWIQTKDGQCGSPLVSTRDGFIVGIHSASNFTNTNNYWTSVPKNFMELLTNQEAQQWVSGWRLNADSVLWGGHKVFMVKPEEPFQPVKEATQL [F180W] | 0.0804 | 0.0706 | 0.0626 | 0.0713 | 0.0723 | 0.0496 | 0.0744 | 0.0929 | 0.0886 | 0.0837 | 0.0918 | – | – | – | – | – | – | –
MGESLFKGPRDYNPISSSICHLTNESDGHTTSLYGIGFGPFIITNKHLFRRNNGTLVVQSLHGVFKVKDTTTLQQHLVDGRDMIIIRMPKDFPPFPQKLKFREPQREERICLVTTNFQTKSMSSMVSDTSCTVPSGDGIFWKHWIQTKDGQCGSPLVSTRDGFIVGIHSASNFTNTNNYFTSVPKNFMELLTNQEAQQWVSGWRLNADSVLWGGHKVFMVKPEEPFQPVKEATQL [F133V] | 0.118 | 0.12 | 0.122 | 0.128 | 0.103 | 0.113 | 0.113 | – | 0.141 | 0.122 | – | 0.114 | 0.155 | – | – | – | – | –
MGESLFKGPRDYNPISSSICHLTNESDGHTTSLYGIGFGPFIITNKHLFRRNNGTLVVQSLHGVFKVKDTTTLQQHLVDGRDMIIIRMPKDFPPFPQKLKFREPQREERICLVTTNFQTKSMSSMVSDTSCTFPSGDGIFWKHWIQTKDGQCGSPLVSTRDGFIVGIHSASNFTNTNNYFTNVPKNFMELLTNQEAQQWVSGWRLNADSVLWGGHKVFMVKPEEPFQPVKEATQL [S182N] | 0.0702 | 0.0509 | – | 0.0953 | 0.0694 | 0.0812 | – | 0.0951 | 0.0858 | 0.0748 | 0.0863 | – | 0.0805 | 0.0883 | 0.0999 | 0.0705 | – | –
MGESLFKGPRDYNPISSSICHLTNESDGHTTSLYGIGFGPFIITNKHLFRRNNGTLVVQSLHGVFKVKDTTTLQQHLVDGRDMIIIRMPKDFPPFPQKLKFRVPQREERICLVTTNFQTKSMSSMVSDTSCTFPSGDGIFWKHWIQTKDGQCGSPLVSTRDGFIVGIHSASNFTNTNNYFTSVPKNFMELLTNQEAQQWVSGWRLNADSVLWGGHKVFMVKPEEPFQPVKEATQL [E103V] | 0.0829 | 0.102 | – | – | 0.088 | 0.11 | 0.0856 | 0.0841 | 0.11 | 0.0966 | – | 0.107 | 0.102 | 0.108 | 0.092 | – | – | –
MGESLFKGPRDYNPISSSICHLTNESDGHTTSLYGIGFGPFIITNKHLFRRNNGTLVVQSLHGVFKVKDTTTLQQHLVDGRDMIIIRMPKDFPPFPQKLKFREPQREERICLVTTNFQTKSMSSMVMDTSCTFPSGDGIFWKHWIQTKDGQCGSPLVSTRDGFIVGIHSASNFTNTNNYFTSVPKNFMELLTNQEAQQWVSGWRLNADSVLWGGHKVFMVKPEEPFQPVKEATQL [S127M] | 0.123 | 0.142 | 0.113 | – | – | 0.0996 | 0.086 | 0.137 | – | 0.12 | 0.0989 | – | 0.117 | – | 0.0935 | – | – | –
MGESLFKGPRDYNPISSSICHLTNESDGHTTSLYGIGFGPFIITNKHLFRRNNGTLVVQSLHGVFKVKDTTTLQQHLVDGRDMIIIRMPKDFPPFPQKLKFREPQREERICLVTTNFQTKSMSSMVSDTSCTFPSGDGIFWKHWIQTKDGQCGSPLVSTRDGFIVGIHSASNFTNTNNYFTSVPKNFMELLTNQEAQQWVSGWRLNADSVLWGGHKDFMVKPEEPFQPVKEATQL [V217D] | 0.0575 | 0.0657 | – | 0.0679 | 0.0573 | 0.0411 | 0.0791 | 0.056 | – | 0.0685 | – | 0.0634 | 0.06 | 0.0689 | – | – | 0.0549 | –
MGESLFKGPRDYNPISSSICHLTNESDGHTTSLYGIGFGPFIITNKHLFRRNNGTLVVQSLHGVFKVKDTTTLQQHLVDGRDMIIIRMPKDFPPFPQKLKFREPQREERICLVTTNFQTKSMSSMVSDTSCTFPSGDNIFWKHWIQTKDGQCGSPLVSTRDGFIVGIHSASNFTNTNNYFTSVPKNFMELLTNQEAQQWVSGWRLNADSVLWGGHKVFMVKPEEPFQPVKEATQL [G138N] | 0.0695 | 0.101 | – | – | 0.083 | 0.103 | 0.1 | – | – | – | 0.0824 | 0.116 | 0.0793 | – | – | – | – | 0.0908
MGESLFKGPRDYNPISSSICHLTNESDGHTTSLYGIGFGPFIITNKHLFRRNNGTLVVQSLHGVFKVKDTTTLQQHLVDGRDMIIIRMPKDFPPFPQKLKFREPQREERICLVTTNFQTKSMSSMVSDTSCTFPSGDGIFWKHWIQTKDGQCGSPLVSTRDGFIVGIHSASNFTNTNNYFTSVPKNFMELLTNQEAQQWVSGWRLNADSVLWGGHKVFMVKPEEPFQHVKEATQL [P228H] | 0.11 | 0.0838 | 0.109 | 0.105 | 0.1 | 0.0959 | 0.0972 | 0.0565 | 0.0847 | 0.0957 | – | 0.111 | 0.0971 | – | – | – | – | 0.117
MGESLFKGPRDYNPISSSICHLTNESDGHTTSLYGIGFGPFIITNKHLFRRNNGTLVVQSLHGVFKVKDTTTLQQHLVDGRDMIIIRMPKDFPPFPQKLKFREPQREERICLVTTNFQTKSMSSMVSDTSCTFPSGDGIFWKHWIQTKDGQCGSPLVSTRDGFIVGIHSASNFTNTNNYFTSVPKNFWELLTNQEAQQWVSGWRLNADSVLWGGHKVFMVKPEEPFQPVKEATQL [M188W] | 0.111 | 0.109 | 0.0834 | 0.112 | 0.0958 | 0.104 | 0.0816 | 0.0996 | 0.115 | 0.0906 | 0.0827 | 0.166 | 0.115 | – | 0.101 | – | – | –
